Where a name gives a salt, the structure may show the parent alone. ± gives the standard deviation of the averaged measurements. This is one part of the list.
What follows are molecules tested on murine small intestinal organoids (ENR+CD Paneth differentiation) (assay: carbachol-stimulated secreted lysozyme activity relative to plate median (log10 fold change); higher = more Paneth cell lysozyme secretion). Conditions: 0.4 µM; 6 d; carbachol 10 µM.

| SMILES | carbachol-stimulated secreted lysozyme activity (log10) |
| --- | --- |
| O=C1CC[C@@]2(O)[C@H]3Cc4ccc(O)c5c4[C@@]2(CCN3CC2CC2)[C@H]1O5 [Naltrexone HCl] | 0.00879 ± 0.072 |
| COc1ccc(C(=O)N2CCCC2=O)cc1 [Aniracetam] | 0.174 ± 0.13 |
| C[C@](O)(COc1ccc(C#N)cc1)C(=O)Nc1ccc(C#N)c(C(F)(F)F)c1 | 0.159 ± 0.16 |
| Cc1cc(SCc2sc(-c3ccc(C(F)(F)F)c(F)c3)nc2C)ccc1OCC(=O)O | 0.182 ± 0.02 |
| O=C(O)CNC(=O)c1c(O)c2ccccc2n(Cc2ccccc2)c1=O | 0.0391 ± 0.086 |
| C[C@@H]1O[C@@H](O[C@H]2C[C@@H](O)[C@]3(CO)[C@H]4[C@H](O)C[C@]5(C)[C@@H](C6=CC(=O)OC6)CC[C@]5(O)[C@@H]4CC[C@]3(O)C2)[C@H](O)[C@H](O)[C@H]1O [Ouabain] | 0.0518 ± 0.0088 |
| CCc1c(C(=O)C(N)=O)c2c(OCC(=O)O)cccc2n1Cc1ccccc1 | 0.11 ± 0.16 |
| CCC(COC(=O)c1cc(OC)c(OC)c(OC)c1)(c1ccccc1)N(C)C (stereo not drawn) [Trimebutine] | 0.0571 ± 0.059 |
| CN1CCc2cc3c(cc2C1C1OC(=O)c2c1ccc1c2OCO1)OCO3 (single isomer, unassigned; (+)) [(+)-Bicuculline] | 0.0668 ± 0.066 |
| Fc1cc(F)c2c(c1)[C@H]1C=CC[C@H]1C(c1cccnc1)N2 (stereo partly drawn) [Golgicide A] | 0.303 ± 0.015 |
| Cn1cc(C2=C(c3cn(C4CCN(Cc5ccccn5)CC4)c4ccccc34)C(=O)NC2=O)c2ccccc21 | 0.302 ± 0.29 |
| CCN(CC)C(=O)c1ccc(C2=CC3(CCNCC3)Oc3cccc(O)c32)cc1 | 0.132 ± 0.037 |
| Cc1sc2c(c1C)C(c1ccc(Cl)cc1)=N[C@@H](CC(=O)OC(C)(C)C)c1nnc(C)n1-2 | -0.487 ± 0.045 |

— the supplement of paper PMC9046079
